Measured values taken from patent publication US7592316B2, “Peptides as NS3-serine protease inhibitors of hepatitis C virus” (Schering Corporation, priority 2000, dated 2009).
*1 amine or outer side, *2 acyl side, *3 side chain or, on linkers, in order; H or OH if unused. Where a SMILES comes first, the peptide text is derived from it. [ ]: non-standard residue; d: D form. The star is where a group is joined. ξ: configuration not given here. Benzoyl(2-COOH-4,5-Cl2) = O=C(O)c1cc(Cl)c(Cl)cc1C(=O)*; Pro(trans-4-Ph) = O=C(O)[C@@H]1C[C@@H](c2ccccc2)CN1; Pro(4,4-S(CH2)3S) = O=C(O)[C@@H]1CC2(CN1)SCCCS2; ξPro(4R-SBzl) = O=C(O)C1C[C@@H](SCc2ccccc2)CN1; ξPro(4,4-S(CH2)3S) = O=C(O)C1CC2(CN1)SCCCS2; Neopentyloxycarbonyl = CC(C)(C)COC(=O)*; Pro(4,4-F2) = O=C(O)[C@@H]1CC(F)(F)CN1; Isobutyloxycarbonyl = CC(C)COC(=O)*; X8 = O=C(C(=O)[*:2])C(CC1CC1)N[*:1]; X4 = CCCCC(N[*:1])C(=O)C(=O)[*:2]; Hyp = O=C(O)[C@@H]1C[C@@H](O)CN1; X2 = CCCC(N[*:1])C(=O)C(=O)[*:2]; Chg = N[CH](C(=O)O)C1CCCCC1; Phg = N[CH](C(=O)O)c1ccccc1; Tle = CC(C)(C)[C@H](N)C(=O)O; X10 = CC(C)(C(=O)*)c1ccccc1; X9 = C[C@H](C(=O)*)c1ccccc1; ξChg = NC(C(=O)O)C1CCCCC1; ξPhg = NC(C(=O)O)c1ccccc1; Morpholide = C1CN(*)CCO1; Pyrrolidide = C1CCN(*)C1; NHCH2CH2OMe = COCCN*; X7 = O=C(OCC1CC1)*; OtBu = CC(C)(C)O*; X37 = CC(C)N(C)*; NHiPr = CC(C)N*; tBu = CC(C)(C)*

Molecular target: HCV NS3/NS4A protease (strain 1a) (Hepatitis C virus genotype 1a, UniProt P27958)
Assay: biochemical
Conditions: HCV protease continuous assay results, Table 1; read-out: Ki* Range

Row | SMILES | Ki [nM]
1 | CC(C)COC(=O)N[C@H](C(=O)N1CC2(CC1C(=O)NC(CC1CC1)C(=O)C(=O)NCC(=O)NC(C(=O)OC(C)(C)C)c1ccccc1)SCCCS2)C1CCCCC1 (stereo partly shown) [Example 146] (Isobutyloxycarbonyl-[Chg][ξPro(4,4-S(CH2)3S)][X8]G[ξPhg]-OtBu) | 1 to 100
2 | CC(C)COC(=O)N[C@H](C(=O)N1CC2(CC1C(=O)NC(CC1CC1)C(=O)C(=O)NCC(=O)NC(C(=O)O)c1ccccc1)SCCCS2)C1CCCCC1 (stereo partly shown) [Example 147] (Isobutyloxycarbonyl-[Chg][ξPro(4,4-S(CH2)3S)][X8]G[ξPhg]-OH) | 1 to 100
3 | CC(C)COC(=O)N[C@H](C(=O)N1CC2(CC1C(=O)NC(CC1CC1)C(=O)C(=O)NCC(=O)NC(C(=O)N(C)C)c1ccccc1)SCCCS2)C1CCCCC1 (stereo partly shown) [Example 148] (Isobutyloxycarbonyl-[Chg][ξPro(4,4-S(CH2)3S)][X8]G[ξPhg]-NMe2) | 101 to 1000
4 | CCCC(NC(=O)C1CC2(CN1C(=O)C(NC(=O)OCC(C)C)C1CCCCC1)SCCCS2)C(=O)C(=O)NCC(=O)NC(C(=O)NC(C)C)c1ccccc1 (stereo not shown) [Example 149] (Isobutyloxycarbonyl-[Chg][ξPro(4,4-S(CH2)3S)][X2]G[Phg]-NHiPr; configuration not given here) | 1 to 100
5 | CCCC(NC(=O)C1CC2(CN1C(=O)C(NC(=O)OCC(C)C)C1CCCCC1)SCCCS2)C(=O)C(=O)NCC(=O)NC(C(=O)N(C)C(C)C)c1ccccc1 (stereo not shown) [Example 150] (Isobutyloxycarbonyl-[Chg][ξPro(4,4-S(CH2)3S)][X2]G[Phg]-X37; configuration not given here) | 1 to 100
6 | CCCC(NC(=O)C1CC2(CN1C(=O)C(NC(=O)OCC(C)C)C1CCCCC1)SCCCS2)C(=O)C(=O)NCC(=O)NC(C(=O)NCCOC)c1ccccc1 (stereo not shown) [Example 151] (Isobutyloxycarbonyl-[Chg][ξPro(4,4-S(CH2)3S)][X2]G[Phg]-NHCH2CH2OMe; configuration not given here) | 1 to 100
7 | CCCC(NC(=O)C1CC2(CN1C(=O)C(NC(=O)OCC(C)C)C1CCCCC1)SCCCS2)C(=O)C(=O)NCC(=O)NC(C(=O)N1CCCC1)c1ccccc1 (stereo not shown) [Example 153] (Isobutyloxycarbonyl-[Chg][ξPro(4,4-S(CH2)3S)][X2]G[Phg]-Pyrrolidide; configuration not given here) | 1 to 100
8 | CCCC(NC(=O)C1CC2(CN1C(=O)C(NC(=O)OCC(C)C)C1CCCCC1)SCCCS2)C(=O)C(=O)NCC(=O)NC(C(=O)N1CCOCC1)c1ccccc1 (stereo not shown) [Example 154] (Isobutyloxycarbonyl-[Chg][ξPro(4,4-S(CH2)3S)][X2]G[Phg]-Morpholide; configuration not given here) | 1 to 100
9 | CCCC(NC(=O)C1C[C@@H](SC(C)(C)C)CN1C(=O)C(NC(=O)OCC(C)C)C1CCCCC1)C(=O)C(=O)NCC(=O)NC(C(=O)OC(C)(C)C)c1ccccc1 (stereo partly shown) [Example 155] | 101 to 1000
10 | CCCC(NC(=O)C1C[C@@H](SC(C)(C)C)CN1C(=O)C(NC(=O)OCC(C)C)C1CCCCC1)C(=O)C(=O)NCC(=O)NC(C(=O)NC)c1ccccc1 (stereo partly shown) [Example 156] | 101 to 1000
11 | CCCC(NC(=O)C1C[C@@H](SC(C)(C)C)CN1C(=O)C(NC(=O)OCC(C)C)C1CCCCC1)C(=O)C(=O)NCC(=O)NC(C(=O)N(C)C)c1ccccc1 (stereo partly shown) [Example 157] | 101 to 1000
12 | CCCC(NC(=O)C1C[C@@H](SCc2ccccc2)CN1C(=O)C(NC(=O)OCC(C)C)C1CCCCC1)C(=O)C(=O)NCC(=O)NC(C(=O)OC(C)(C)C)c1ccccc1 (stereo partly drawn) [Example 158] (Isobutyloxycarbonyl-[ξChg][ξPro(4R-SBzl)][X2]G[ξPhg]-OtBu) | > 1000
13 | CCCC(NC(=O)C1C[C@@H](SCc2ccccc2)CN1C(=O)C(NC(=O)OCC(C)C)C1CCCCC1)C(=O)C(=O)NCC(=O)NC(C(=O)NC)c1ccccc1 (stereo partly drawn) [Example 159] (Isobutyloxycarbonyl-[ξChg][ξPro(4R-SBzl)][X2]G[ξPhg]-NHMe) | 101 to 1000
14 | CCCC(NC(=O)C1C[C@@H](SCc2ccccc2)CN1C(=O)C(NC(=O)OCC(C)C)C1CCCCC1)C(=O)C(=O)NCC(=O)NC(C(=O)N(C)C)c1ccccc1 (stereo partly drawn) [Example 160] (Isobutyloxycarbonyl-[ξChg][ξPro(4R-SBzl)][X2]G[ξPhg]-NMe2) | 1 to 100
15 | CCCC(NC(=O)C1C[C@@H](SCc2ccccc2)CN1C(=O)C(NC(=O)OCC(C)C)C1CCCCC1)C(=O)C(=O)NCC(=O)NC(C(=O)O)c1ccccc1 (stereo partly drawn) [Example 161] (Isobutyloxycarbonyl-[ξChg][ξPro(4R-SBzl)][X2]G[ξPhg]-OH) | 1 to 100
16 | CCCC(NC(=O)C1C[C@@H](SC(C)(C)C)CN1C(=O)C(NC(=O)OCC(C)C)C1CCCCC1)C(=O)C(=O)NCC(=O)NC(C(=O)O)c1ccccc1 (stereo partly shown) [Example 162] | 1 to 100
17 | C=CCC1CCN(C(=O)[C@@H](NC(=O)OCC(C)C)C2CCCCC2)C1C(=O)NC(CCC)C(=O)C(=O)NCC(=O)NC(C(=O)OC(C)(C)C)c1ccccc1 (stereo partly shown) [Example 163] | > 1000

Row | SMILES | Ki [nM]
18 | C=CCC1CCN(C(=O)[C@@H](NC(=O)OCC(C)C)C2CCCCC2)C1C(=O)NC(CCC)C(=O)C(=O)NCC(=O)NC(C(=O)O)c1ccccc1 (stereo partly shown) [Example 164] | 1 to 100
19 | CCCC(NC(=O)[C@@H]1CC2(CN1C(=O)[C@@H](NC(=O)c1cc(Cl)c(Cl)cc1C(=O)O)C1CCCCC1)SCCCS2)C(=O)C(=O)NCC(=O)NC(C(=O)N(C)C)c1ccccc1 (stereo partly shown) [Example 174] ({Benzoyl(2-COOH-4,5-Cl2)}-[Chg][Pro(4,4-S(CH2)3S)][X2]G[ξPhg]-NMe2) | 1 to 100
20 | CCCC(NC(=O)[C@@H]1CC2(CN1C(=O)[C@@H](NC(=O)c1cc(Cl)c(Cl)cc1C(=O)O)C1CCCCC1)SCCCS2)C(=O)C(=O)NCC(=O)NC(C(=O)O)c1ccccc1 (stereo partly shown) [Example 176] ({Benzoyl(2-COOH-4,5-Cl2)}-[Chg][Pro(4,4-S(CH2)3S)][X2]G[ξPhg]-OH) | 101 to 1000
21 | CC(C)COC(=O)N[C@H](C(=O)N1CC2(C[C@H]1C(=O)NC(CC1CC1)C(=O)C(=O)NCC(=O)NC(C(=O)OC(C)(C)C)c1ccccc1)SCCCS2)C(C)(C)C (stereo partly shown) [Example 178] (Isobutyloxycarbonyl-[Tle][Pro(4,4-S(CH2)3S)][X8]G[ξPhg]-OtBu) | 1 to 100
22 | CC(C)COC(=O)N[C@H](C(=O)N1CC2(C[C@H]1C(=O)NC(CC1CC1)C(=O)C(=O)NCC(=O)NC(C(=O)O)c1ccccc1)SCCCS2)C(C)(C)C (stereo partly shown) [Example 179] (Isobutyloxycarbonyl-[Tle][Pro(4,4-S(CH2)3S)][X8]G[ξPhg]-OH) | 1 to 100
23 | CCCCC(NC(=O)[C@@H]1CC2(CN1C(=O)[C@@H](NC(=O)OCC(C)C)C(C)(C)C)SCCCS2)C(=O)C(=O)NCC(=O)NC(C(=O)OC(C)(C)C)c1ccccc1 (stereo partly shown) [Example 182] (Isobutyloxycarbonyl-[Tle][Pro(4,4-S(CH2)3S)][X4]G[ξPhg]-OtBu) | 101 to 1000
24 | CCCCC(NC(=O)[C@@H]1CC2(CN1C(=O)[C@@H](NC(=O)OCC(C)C)C(C)(C)C)SCCCS2)C(=O)C(=O)NCC(=O)NC(C(=O)O)c1ccccc1 (stereo partly shown) [Example 183] (Isobutyloxycarbonyl-[Tle][Pro(4,4-S(CH2)3S)][X4]G[ξPhg]-OH) | 1 to 100
25 | CCCCC(NC(=O)[C@@H]1CC2(CN1C(=O)[C@@H](NC(=O)OCC(C)C)C(C)(C)C)SCCCS2)C(=O)C(=O)NCC(=O)NC(C(=O)N(C)C)c1ccccc1 (stereo partly shown) [Example 184] (Isobutyloxycarbonyl-[Tle][Pro(4,4-S(CH2)3S)][X4]G[ξPhg]-NMe2) | 1 to 100
26 | CCCC(NC(=O)[C@@H]1CC2(CN1C(=O)[C@@H](NC(=O)OCC(C)(C)C)C(C)(C)C)SCCCS2)C(=O)C(=O)NCC(=O)NC(C(=O)N(C)C)c1ccccc1 (stereo partly shown) [Example 185] (Neopentyloxycarbonyl-[Tle][Pro(4,4-S(CH2)3S)][X2]G[ξPhg]-NMe2) | 1 to 100
27 | CCCC(NC(=O)[C@@H]1CC2(CN1C(=O)[C@@H](NC(=O)[C@@H](C)c1ccccc1)C(C)(C)C)SCCCS2)C(=O)C(=O)NCC(=O)NC(C(=O)N(C)C)c1ccccc1 (stereo partly shown) [Example 187] (X9-[Tle][Pro(4,4-S(CH2)3S)][X2]G[ξPhg]-NMe2) | 1 to 100
28 | CCCC(NC(=O)[C@@H]1CC2(CN1C(=O)[C@@H](NC(=O)C(C)(C)c1ccccc1)C(C)(C)C)SCCCS2)C(=O)C(=O)NCC(=O)NC(C(=O)N(C)C)c1ccccc1 (stereo partly shown) [Example 189] (X10-[Tle][Pro(4,4-S(CH2)3S)][X2]G[ξPhg]-NMe2) | 101 to 1000
29 | CCCC(NC(=O)[C@@H]1CC2(CN1C(=O)[C@@H](NC(=O)OCC1CC1)C(C)(C)C)SCCCS2)C(=O)C(=O)NCC(=O)NC(C(=O)N(C)C)c1ccccc1 (stereo partly shown) [Example 199] (X7-[Tle][Pro(4,4-S(CH2)3S)][X2]G[ξPhg]-NMe2) | 1 to 100
30 | CCCC(NC(=O)[C@@H]1CC(F)(F)CN1C(=O)[C@@H](NC(=O)OCC(C)C)C1CCCCC1)C(=O)C(=O)NCC(=O)N[C@H](C(=O)OC(C)(C)C)c1ccccc1 (stereo partly shown) [Example 201] (Isobutyloxycarbonyl-[Chg][Pro(4,4-F2)][X2]G[Phg]-OtBu) | 101 to 1000
31 | CCCC(NC(=O)[C@@H]1CC(F)(F)CN1C(=O)[C@@H](NC(=O)OCC(C)C)C1CCCCC1)C(=O)C(=O)NCC(=O)N[C@H](C(=O)O)c1ccccc1 (stereo partly shown) [Example 202] (Isobutyloxycarbonyl-[Chg][Pro(4,4-F2)][X2]G[Phg]-OH) | 1 to 100
32 | CCCC(NC(=O)[C@@H]1CC(F)(F)CN1C(=O)[C@@H](NC(=O)OCC(C)C)C1CCCCC1)C(=O)C(=O)NCC(=O)N[C@H](C(=O)N(C)C)c1ccccc1 (stereo partly shown) [Example 203] (Isobutyloxycarbonyl-[Chg][Pro(4,4-F2)][X2]G[Phg]-NMe2) | 101 to 1000
33 | CCCC(NC(=O)[C@@H]1C[C@@H](c2ccccc2)CN1C(=O)[C@@H](NC(=O)OCC(C)C)C1CCCCC1)C(=O)C(=O)NCC(=O)N[C@H](C(=O)N(C)C)c1ccccc1 (stereo partly drawn) [Example 204] (Isobutyloxycarbonyl-[Chg][Pro(trans-4-Ph)][X2]G[Phg]-NMe2) | 101 to 1000
34 | CCCC(NC(=O)[C@@H]1C[C@@H](OC(C)(C)C)CN1C(=O)[C@@H](NC(=O)OCC(C)C)C1CCCCC1)C(=O)C(=O)NCC(=O)N[C@H](C(=O)OC(C)(C)C)c1ccccc1 (stereo partly shown) [Example 205] (Isobutyloxycarbonyl-[Chg][Hyp](tBu)[X2]G[Phg]-OtBu) | 101 to 1000
